Values joined by “and” are separate entries in the source; they are usually repeats but may differ in a detail not shown here. Identical values can stand only once. The full ranking holds about 110,000 compounds; the median of “z-score” is about -0.1, and the highest 2% start at about 2. The list shows a part of the results. Active and inactive are the calls of the source.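 Rule for the calls: active = z-score in the third read window above 3 or below -3; inactive = the rest.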 Non-standard residues stand in square brackets, D forms with d. Residues, ends and D or L forms follow the SMILES beside them. *: point of attachment. Hyp = O=C(O)[CH]1C[CH](O)CN1; Cbz = O=C(OCc1ccccc1)*; OBn = c1ccc(CO*)cc1
What follows are compounds tested against Metabotropic glutamate receptor 8 (Rattus norvegicus) (UniProt P70579) (assay: mGluR8 Gi/Go-coupled signaling modulation – cell-based, rat, thallium flux, HTS, primary screen (AID 488969)). Details: HEK293 rat mGluR8, GIRK (G protein-gated inwardly rectifying potassium channel) thallium flux, FluoZin2; at 10 µM; stronger effect = higher value; submaximal glutamate (EC20) added with thallium.
Sequence of UniProt P70579 (P70579 whole entry, looked up): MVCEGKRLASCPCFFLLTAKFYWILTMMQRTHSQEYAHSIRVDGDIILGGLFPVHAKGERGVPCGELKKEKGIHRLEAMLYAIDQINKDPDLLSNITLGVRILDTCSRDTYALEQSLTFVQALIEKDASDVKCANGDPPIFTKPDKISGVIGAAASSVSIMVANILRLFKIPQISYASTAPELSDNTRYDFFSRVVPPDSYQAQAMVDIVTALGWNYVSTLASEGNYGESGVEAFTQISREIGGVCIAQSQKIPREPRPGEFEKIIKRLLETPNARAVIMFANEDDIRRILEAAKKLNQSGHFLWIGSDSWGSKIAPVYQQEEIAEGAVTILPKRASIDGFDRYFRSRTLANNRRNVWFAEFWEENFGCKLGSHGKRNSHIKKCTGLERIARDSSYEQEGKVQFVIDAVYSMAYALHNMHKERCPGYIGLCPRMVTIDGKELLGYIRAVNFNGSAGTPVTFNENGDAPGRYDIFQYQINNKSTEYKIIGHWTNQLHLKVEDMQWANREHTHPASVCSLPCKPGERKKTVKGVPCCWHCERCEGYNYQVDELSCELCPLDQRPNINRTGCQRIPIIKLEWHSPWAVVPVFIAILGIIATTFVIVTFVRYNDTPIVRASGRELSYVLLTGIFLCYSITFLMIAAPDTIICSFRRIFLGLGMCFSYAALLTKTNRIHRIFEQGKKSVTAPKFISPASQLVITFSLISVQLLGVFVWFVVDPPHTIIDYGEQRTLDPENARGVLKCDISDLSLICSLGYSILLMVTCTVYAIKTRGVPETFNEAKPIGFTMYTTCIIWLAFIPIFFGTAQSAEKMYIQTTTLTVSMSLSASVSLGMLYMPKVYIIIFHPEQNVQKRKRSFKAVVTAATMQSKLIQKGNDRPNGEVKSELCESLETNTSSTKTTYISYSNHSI

Point of comparison: `COC(=O)/C(=C/c1ccc2c(c1)c1ccccc1n2C)NC(=O)c1ccccc1`, z-score -0.303. Against it:
- O=C(Nc1cccc(S(=O)(=O)N2CCOCC2)c1)c1ccco1 — higher, -0.177
- Cc1ccc(Nc2nc(NCCCN3CCOCC3)nc(N)c2[N+](=O)[O-])cc1C — higher, 0.122
- O=C(NC(=S)Nc1cc(C(F)(F)F)ccc1Cl)c1ccccc1 — higher, 1.04
- COc1cc(/C=C/C(=O)c2ccc(Cl)s2)cc(OC)c1O — lower, -0.613
- CCOC(=O)c1cccc(NC(=O)CSc2nc(N)cc(N)n2)c1 — lower, -0.636
- CCOCCCNC(=O)C1CCCN(S(=O)(=O)CC)C1 (centres undefined) — lower, -0.453
- O=S(=O)(c1ccc(Cl)cc1)N1CCN(C2CCN(Cc3ccccc3)CC2)CC1 — lower, -0.626
- CCn1c(=O)cc(SCC(=O)Nc2ccc3c(c2)OCO3)c2ccccc21 — lower, -0.717
- O=C(Cn1cnc2c(nnn2-c2ccccc2)c1=O)N1CCC(Cc2ccccc2)CC1 — higher, -0.258
- CCOC(=O)c1[nH]c2ccccc2c1CCCN1C(=O)c2ccccc2C1=O — higher, 0.0197
- CCc1cccc(NC(=O)CN(C)S(=O)(=O)c2cccc3nsnc23)c1 — higher, 0.803
- CCOC(=O)C1CCCN(S(=O)(=O)c2cc(OCC(N)=O)c(C)cc2Cl)C1 (centres undefined) — lower, -0.472
- C=CCN1C(=O)N(/C=C/C)c2cccc3cccc1c23 — lower, -0.832
- O=C(Nc1ccc(NC(=O)C2CC2)nc1)c1ccncc1 — higher, 0.413
- COc1ccc(N(CC(=O)Nc2ccc3c(c2)OCO3)S(=O)(=O)c2c(C)nn(C)c2C)cc1 — lower, -0.373
- CCOC(=O)N/N=C/c1ccc(OCCSc2ccc(Cl)cc2)c(OC)c1 — higher, 0.417
- Cc1nn(-c2ccccc2)c(C)c1/C=N/NC(=O)c1cc(-c2cccs2)[nH]n1 — lower, -0.434
- Cc1ccc(Cn2c(SCC(=O)Nc3cc(C)on3)nc3ccccc3c2=O)cc1 — higher, 1.07
- O=C(Nc1nnc(-c2ccco2)o1)C1CCCCC1 — lower, -0.315
- CC(NC(=O)CNC(=O)OCc1ccccc1)C(=O)N1CC(O)CC1C(=O)OCc1ccccc1 (stereo not drawn) (Cbz-Gly-Ala-[Hyp]-OBn; configuration not given here) — higher, -0.00981
- C/C(=N\NC(=O)c1nc2ccccn2c1C)c1ccc2c(c1)OCO2 — higher, -0.032
- O=C1CC(c2cccs2)c2cc3c(cc2N1)OCCO3 (centres undefined) — lower, -0.318
- Cc1cccc(NC(=O)CCSc2nncn2C)c1 — higher, 1.44
- COC(=O)c1ccc(C(=O)OC)c(NC(=O)CN(c2ccc3c(c2)OCO3)S(C)(=O)=O)c1 — lower, -0.361
- CCO/N=C(/C)c1c(O)cc(-c2ccccc2)n(-c2ccccc2)c1=O — higher, -0.176
- CC(c1nc2ccccc2c(=O)[nH]1)N1CCN(C)CC1 (centres undefined) — higher, 0.795
- COc1ccc(N(CC(=O)Nc2cccc(C(F)(F)F)c2)S(C)(=O)=O)cc1 — higher, 1.93
- Cc1ccc(C2C(C#N)=C(N)Oc3c2c(=O)n(C)c(=O)n3C)cc1 (centres undefined) — higher, -0.275
- O=C(Nc1ccc2nn(-c3ccccc3)nc2c1)c1cccnc1 — lower, -0.646
- COc1ccc(C(=O)Nc2ccccc2C(=O)O)cc1Cl — lower, -1.43
- c1ccc2[nH]c(-c3ccnc4ccccc34)nc2c1 — higher, 0.826
- Cn1nnc2c(NCc3ccco3)nccc21 — higher, 1.65
- O=C(CSc1cn(CCNC(=O)c2cccs2)c2ccccc12)NCc1ccccc1 — higher, -0.19
- COc1cc2nc(SCC(=O)NCc3ccco3)n(Cc3ccc(Cl)cc3)c(=O)c2cc1OC — higher, 0.933
- COCCn1c(SCC(=O)c2ccc3c(c2)OCCO3)nnc1C(C)C — higher, -0.149
- CCOC(=O)c1c(NC(=O)c2ccccc2)sc2c(O)c(CN(CC)CC)ccc12 — higher, -0.0937
- CN1CCN(CC(O)c2ccccc2)CC1 (centres undefined) — higher, 0.0201
- O=C1NC(=NCc2ccccc2)S/C1=C/c1ccc(O)cc1 — higher, -0.0843
- CCSc1nc2c(c(=O)[nH]1)C(c1ccccn1)C1=C(CC(C)(C)CC1=O)N2 (centres undefined) — lower, -0.818
- CCOC(=O)c1ccccc1NC(=O)CN(c1ccccc1OCC)S(C)(=O)=O — lower, -0.699
- COc1ccc(/C=C2\CCc3ccccc3C2=O)cc1Cn1cccn1 — higher, 0.356
- COc1ccc(OC)c(/C=N/NC(=O)c2cc3c(OC)c(OC)ccc3[nH]2)c1 — higher, -0.17
- O=C(NCc1ccco1)C1CCCN(S(=O)(=O)c2ccc(Cl)cc2)C1 (centres undefined) — higher, -0.144
- O=C(Nc1ccc(Cc2ccncc2)cc1)c1ccc(S(=O)(=O)N2CCOCC2)cc1 — higher, -0.273
- CCCCn1c(SCc2ccc(Cl)cc2)nc2c1c(=O)[nH]c(=O)n2C — higher, 0.315
- CCOc1ccc(Br)cc1/C=N/NC(=O)c1ccncc1 — higher, -0.159
- Nc1nc(Cl)nc(N(c2ccccc2)c2ccccc2)n1 — higher, -0.0225
- O=C(CCC(=O)N/N=C/c1ccccc1O)NCc1ccccc1 — higher, -0.229
- CCCC(=O)c1c[nH]c(C(=O)NCCc2ccccn2)c1 — higher, -0.0274
- COc1ccccc1OCC(=O)Nc1cccc(N(C)S(C)(=O)=O)c1 — lower, -0.338
- CC(=O)c1cccc(NC(=O)C2C3C=CC(C4CC34)C2C(=O)O)c1 (centres undefined) — higher, -0.0714
- CN(O)/C=C1\C(=O)Nc2ccccc21 — higher, -0.11
- CCN(CC)c1ccc(/C=N/N2C(=O)c3ccccc3C2=O)cc1 — higher, 0.0646
- CCOC(=O)CN1CC23C=CC(O2)C(C(=O)O)C3C1=O (centres undefined) — lower, -0.832
- CC(C)(C)c1ccc(C(=O)c2c[nH]c(C(=O)NCCCn3ccnc3)c2)cc1 — lower, -0.375
- COc1cccc(-c2nc(NCc3ccco3)c3ccccc3n2)c1O — higher, 0.149
- O=C(CSc1nnc2ccccn12)Nc1cccc(S(=O)(=O)N2CCOCC2)c1 — higher, -0.299
- CC(=O)Oc1ccc(NC(=O)CCC2CCCCC2)c(C(=O)O)c1 — lower, -0.612
- Cc1cc(NC(=O)CCSc2nc(-c3ccco3)cc(C(F)(F)F)n2)n(-c2ccccc2)n1 — lower, -0.547
- CCOC(=O)N1CCC(NC(=O)C2CCCN(Cc3nc(-c4cccc(Cl)c4)oc3C)C2)CC1 (centres undefined) — lower, -0.647
- Cc1nc(NC(=O)CN(C)S(=O)(=O)c2ccc(Cl)cc2)sc1C — higher, 0.149
- CCn1nc(C(=O)OC2CCOC2=O)c2ccccc2c1=O (centres undefined) — higher, 1.16
- Cc1ccc(NC(=O)N2CCCN(Cc3ccc(F)cc3)C2)cc1C — lower, -0.435
- O=C(COC(=O)c1ccccc1-c1ccccc1[N+](=O)[O-])c1ccccc1 — higher, -0.126
- Cc1cc(=O)[nH]c(SCCCOc2ccc3c(c2)CCC3)n1 — lower, -0.838
- Cc1cccc(NC(=O)CSc2nnc(-c3ccco3)o2)c1C — higher, 0.0721
- COC(=O)c1cc(OC)c(OC)cc1NC(=O)CN1C(=O)c2ccccc2C1=O — higher, -0.131
- COc1ccc(OC)c(/C=N/NC(=O)Cc2nc3ccccc3[nH]2)c1 — higher, 0.0716
- COc1ccccc1OCC(=O)Nc1cccc(C(=O)N2CCOCC2)c1 — higher, 0.0768
- N#CCSc1nnc(CNc2ccc(F)cc2)o1 — higher, 0.394
- Cn1c(=O)c2c(nc(SCCN3CCCCC3)n2Cc2ccc(Cl)cc2)n(C)c1=O — lower, -0.743
- CCOc1c2ccc(C(=O)NCc3ccc(C(F)(F)F)cc3C(F)(F)F)cc2nn1C — higher, -0.0208
- Nn1c(SCC(=O)Nc2ccccc2F)nc2ccccc2c1=O — lower, -0.66
- Cc1ccc(-c2csc(N(Cc3ccco3)C(=O)c3cccs3)n2)cc1 — lower, -0.484
- Cc1cccc(C(=O)NNC2=C(C(=O)C(F)(F)F)CCC2)c1O — lower, -0.745
- CCN(CC)CCNC(=O)c1cc(Sc2nnc(C)s2)nc2ccccc12 — higher, 0.0421
- O=C(O)COc1cccc(NC(=O)C2CCCO2)c1 (centres undefined) — higher, 0.711
- Cc1ccccc1NC(=O)CSc1nnc(-c2ccccc2)n1-c1ccccc1 — higher, -0.183
- CC(C)(CO)NC(=O)CCCOc1ccc(Cl)cc1Cl — higher, -0.125
- O=C(CC1N=C2c3ccccc3N=C(SCc3ccccc3Cl)N2C1=O)NCc1ccco1 (centres undefined) — higher, -0.146
- Cc1cccc(C)c1NC(=O)CN1C(=O)S/C(=C\c2cccn2-c2cccc(C(=O)O)c2)C1=O — lower, -0.39
- COc1ccccc1NS(=O)(=O)c1cccc(C(=O)NN=C2CCCCCC2)c1 — higher, 0.00957
- CCOc1ccc(C(=O)N/N=C(\c2ccccc2)c2ccccn2)cc1 — lower, -0.453
- O=S(=O)(Cc1ccc(Cl)cc1)N1CCCC1 — higher, 0.31
- CCCCC(=O)Nc1nnn(CCC)n1 — higher, 0.274
- Cc1nn(C)cc1/C=N/NC(=O)c1sc2ccccc2c1Cl — higher, 0.226
- O=C(CSc1nnc(-c2cnccn2)n1Cc1ccco1)c1ccc(Cl)cc1 — lower, -0.74
- CC1(C)CCC(C)(C)NC(=S)N1 — higher, 0.163
- CCOc1cnc(-c2ccc(Cl)cc2)o1 — higher, -0.137
- COc1ccccc1-c1nc(-c2ccc(Br)o2)no1 — lower, -0.865
- CCOC(=O)CC1COc2ccccc2N1C(=O)c1ccc(C)cc1 (centres undefined) — lower, -0.591
- CC(C)(C)C(=O)COC(=O)c1cccc(NC(=O)c2ccco2)c1 — higher, 1.97
- O=C(CCc1ccc(S(=O)(=O)NCc2ccccc2)cc1)NCc1cccnc1 — higher, -0.0913
- Cc1ccccc1NC(=O)C1CC(=O)N(c2ccccc2F)C1 (centres undefined) — higher, 0.299
- COc1ccc(CCNC2CC(=O)N(C)C2=O)cc1OC (centres undefined) — higher, -0.0319
- COc1ccc(C(=O)n2cc(C(=O)c3cc(C)ccc3O)cn2)cc1 — lower, -1.28
- C=CCn1c(CNC(=O)c2cccs2)nnc1SCC(=O)Nc1ccc(C(=O)O)cc1 — higher, -0.0859
- CCN(CCNC(=O)CN1CCN(Cc2ccc(Cl)cc2)C1=O)c1ccccc1 — higher, -0.278
- O=C(O)c1ccc(CSc2nc3ccccc3o2)cc1 — higher, 0.254
- CCOC(=O)c1c(C)[nH]c(N=Nc2ccccc2C)c1C — lower, -0.442
- CC1=NNC(=O)C1C(c1ccccc1)C(C#N)C#N (centres undefined) — lower, -0.494
- CCCCCn1c(CN2CCN(c3cccc(Cl)c3)CC2)nc2c1c(=O)[nH]c(=O)n2C — higher, 0.565
- Cc1oc2c(CN3CCCC3)c(O)ccc2c(=O)c1-c1ccc(Cl)cc1 — lower, -0.5
- O=C1C=C(N2CCN(C(=O)c3ccccc3)CC2)C2(CCCCC2)O1 — higher, 1.34
- CC1(C)Oc2ccc3ccc(=O)oc3c2/C(=C/NCCN/C=C2\C(=O)C(C)(C)Oc3ccc4ccc(=O)oc4c32)C1=O — higher, 0.187
- CC(C)CNC(=O)CSc1ccc(Cl)cc1 — lower, -0.519

In the case of `O=C(Nc1nc(-c2ccccc2)c(-c2ccccc2)o1)c1ccc(F)cc1`, the z-score is reported as active: 13.5.
In the case of `COc1ccc(-c2cn(-c3ccccc3)c3[n+]2CCS3)cc1`, the z-score is reported as 0.217 and -0.0432.
